Article PMC6919601, “Identification of Plasmodium dipeptidyl aminopeptidase allosteric inhibitors by high throughput screening” (PLoS ONE, 2019)
Screen size: about 110,000 compounds; about 230 (0.21%) showed an effect of 50% or more. Some of the results follow.

target: DPAP1 (Plasmodium falciparum, UniProt Q8IIJ9); experiment: primary screen, percent inhibition; read by cleavage of a fluorogenic dipeptide substrate; higher = more effect of the substance; parameters: species or system P. falciparum D10 trophozoite lysates; single well
Sequence (Q8IIJ9 whole entry, looked up): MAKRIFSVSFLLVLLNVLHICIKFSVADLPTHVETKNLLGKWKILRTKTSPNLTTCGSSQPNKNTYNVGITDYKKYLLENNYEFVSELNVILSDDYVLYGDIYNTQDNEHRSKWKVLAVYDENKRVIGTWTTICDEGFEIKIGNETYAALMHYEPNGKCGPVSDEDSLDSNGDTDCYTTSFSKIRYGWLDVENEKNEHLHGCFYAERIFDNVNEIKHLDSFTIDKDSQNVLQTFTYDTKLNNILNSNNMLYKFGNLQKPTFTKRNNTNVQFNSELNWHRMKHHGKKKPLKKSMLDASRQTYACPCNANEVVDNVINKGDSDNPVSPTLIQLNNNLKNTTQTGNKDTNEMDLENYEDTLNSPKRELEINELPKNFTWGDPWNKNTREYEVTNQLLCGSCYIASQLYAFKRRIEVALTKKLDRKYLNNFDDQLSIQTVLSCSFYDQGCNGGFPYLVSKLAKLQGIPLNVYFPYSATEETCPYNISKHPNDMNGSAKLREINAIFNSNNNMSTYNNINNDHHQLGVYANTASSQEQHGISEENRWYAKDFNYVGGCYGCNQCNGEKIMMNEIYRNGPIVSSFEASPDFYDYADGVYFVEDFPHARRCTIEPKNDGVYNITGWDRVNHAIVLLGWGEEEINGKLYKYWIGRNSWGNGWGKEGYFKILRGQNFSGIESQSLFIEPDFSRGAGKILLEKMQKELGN
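Note: 30 min substrate incubation versus DMSO and 10 µM JCP410 controls.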

Structure (SMILES)	% Inhibition @ 10 uM
CC(=O)c1cc2c(cc1NC(=O)C(C)Oc1ccccc1C)OCO2 (centres unmarked)	3.67%
Cc1ccc(COc2ccc3ccccc3c2/C=C2/NC(=O)NC2=O)cc1	3.19%
COc1cccc(/C=C2\SC(=O)N(CC(=O)Nc3ccc(C)cc3)C2=O)c1	-6.24%
Cc1ccc(Cn2c(SCCO)nc3c2c(=O)[nH]c(=O)n3C)cc1	0.317%
CC(C)C[C@H](NC(=O)c1csc(-c2cccc(N)c2)n1)C(=O)NCC#N	0.173%
O=C(CN1C(=O)c2cccc3cccc1c23)N1CCN(c2ccc(F)cc2)CC1	-3.92%
O=C(Nc1ccc(Cl)c(Cl)c1)c1ccccc1Br	1.96%
Cc1ccc(F)cc1NC(=O)C1CC(O)CN1C(=O)OCC(C)C (centres unmarked)	3.43%
CC(C)(C)C(/C=C\c1ccc(Cl)cc1Cl)n1nnnc1C(c1ccc(Cl)cc1Cl)N1CCOCC1 (centres unmarked)	-5.28%
CC(CCc1ccccc1)NC(=O)c1ccc(Br)o1 (centres unmarked)	-5.34%
O=C1c2ccc(-c3ccc4c(c3)C(=O)N(CCCO)C4=O)cc2C(=O)N1CCCO	-4.06%
CNC(=S)NCc1ccc2[nH]c(C)cc2c1	2.99%
CCCc1cc(O)n2nc(NCc3ccc(C(C)C)cc3)nc2n1	2.62%
CC(=C/C(=O)O)/C(=C/c1cccc2ccccc12)C(=O)O	-5.11%
COc1cccc(C(=O)C2=C(O)C(=O)N(CCCn3ccnc3)C2c2ccco2)c1 (centres unmarked)	2.49%
COc1cccc(N(CC(=O)N2CCOCC2)S(=O)(=O)c2ccccc2)c1	10.2%
O=C1N/C(=C/c2ccc3c(c2)OCO3)C(=O)N1c1ccc(Cl)cc1	4.05%
CN(c1cccc(NC(=O)CN(c2cc(Cl)ccc2Cl)S(C)(=O)=O)c1)S(C)(=O)=O	0.993%
COc1ccc(CCNC(=O)C2CC(=O)N(c3ccc(Br)cc3)C2)cc1OC (centres unmarked)	5.39%
CC1CCN(CCCNC(=O)c2cc3c(-c4ccc(Cl)cc4)nn(C)c3s2)CC1	-4.96%
Clc1nc(Cl)nc(NC2CCCCC2)n1	5.55%
COc1ccc(S(=O)(=O)N(CC(=O)NCC2CCCO2)Cc2ccccc2)cc1 (centres unmarked)	3.43%
COCC1=Nc2nnnn2C(c2ccc(Cl)cc2Cl)/C1=C(\O)OC (centres unmarked)	-5.43%
Cc1nc2nc(NC(=O)C(c3ccccc3)c3ccccc3)nn2c(O)c1C	0.401%
Cc1cc2nc(O)c(CCO)c(C)n2n1	15.9%
O=C(Cn1nc(Cc2cccnc2)c2ccccc2c1=O)NC1CCCCC1	-1.21%

Structure (SMILES)	% Inhibition @ 10 uM
Cc1cccc(NC(=O)c2ccc([N+](=O)[O-])cc2Cl)c1C	6.6%
CSCCC(C(=O)O)n1c(S)nnc1-c1ccc2ccccc2n1 (centres unmarked)	-2.91%
O=C(NCc1ccco1)c1cc(-c2ccccc2)nc2ccccc12	-3.94%
CC(C)C(=O)Nc1cccc(-c2cn3ccsc3n2)c1	3.05%
O=C(O)C1=NN(c2ccccc2)C(=O)/C1=C\c1cccs1	-6.01%
COC(F)(C(=O)Nc1sc2c(c1C#N)CCN(Cc1ccccc1)C2)C(F)(F)F (centres unmarked)	0.503%
COC(=O)c1cc(Oc2nc(C)nc3sc4c(c23)CCC4)cc(C(=O)OC)c1	-8.7%
CC(C)Nc1nc2ccccc2n2nnnc12	-0.522%
N#CC1=C(N)Oc2cc(N)ccc2C1c1ccc(C(F)(F)F)cc1 (centres unmarked)	-0.261%
S=C(Nc1ccccc1)N1CCOCC1	0.132%
COc1ccccc1-c1c(C)nn2c(N3CCCCC3C)cc(C)nc12 (centres unmarked)	1.88%
O=C(CN1C(=O)S/C(=C/c2ccncc2)C1=O)N1CCOCC1	-1.38%
COC(=O)C1=C(O)/C(=C\c2ccccc2Cl)N=C1C	2.16%
Cc1oncc1NC(=O)[C@H](CC(C)C)NC(=O)c1ccc(N2CCN(C)CC2)cc1	0.173%
Cc1sc(NC(=O)COc2ccccc2)c(C(N)=O)c1C	1.4%
CC(=O)NC(Cc1c[nH]c2ccccc12)C(=O)NCc1cccs1 (centres unmarked)	-7.96%
NC(=O)C1CCN(C(=O)c2cnn(-c3ccccc3)c2NC(=O)c2ccccc2F)CC1	-8.41%
CC(O)C(NC(=O)OCc1ccccc1)C(=O)NC(CCc1ccccc1)C(=O)CO (centres unmarked)	-11%
CCn1c(SCC(N)=O)nc2c(c1=O)C1(CCCCC1)Cc1ccccc1-2	1.02%
CN(C)CCn1nnc2c(=O)oc3ccccc3c21	-4.21%
Cc1c(Cl)cccc1-n1nc(C)c2c(C(F)(F)F)cc(=O)n(CC(=O)NCc3ccccc3)c21	-0.835%
CCOc1cc(CN2CCc3ccccc3C2)ccc1OC	-3.65%
CCC(=O)OCC1OC(n2ccc(=O)[nH]c2=O)CC1OC(=O)CC (centres unmarked)	-2.59%
O=C1CC(c2cccs2)c2cc3c(cc2N1)OCO3 (centres unmarked)	5.15%
Cc1ccc(CSc2ncc(C#N)c(N)n2)cc1	0.401%
O=C(O)c1ccn2c(C(=O)c3ccccc3)c(-c3ccccc3)cc2c1	-1.22%

Structure (SMILES)	% Inhibition @ 10 uM
CCOC(=O)c1cc(C)n(-c2ccc(C(=O)Nc3nc(C)cs3)cc2)c1C	2.72%
O=c1c(-c2ccc3c(c2)OCCO3)coc2c(CN3CCN(CCO)CC3)c(O)ccc12	-1.82%
COc1ccc(S(=O)(=O)Nc2cccc(NS(=O)(=O)c3ccc(OC)cc3)c2)cc1	2.03%
CCOc1ccc(CNCc2cccs2)cc1	2.08%
Cc1ccc(Cn2cc[nH]c(=O)c2=O)cc1	-4.58%
COc1ccc(C)cc1N(CC(=O)Nc1cccnc1)S(C)(=O)=O	6.79%
O=C(NCCNC(=O)Nc1ccc(Cl)cc1)Nc1ccc(Cl)cc1	-7.28%
Cc1ccc(S(=O)(=O)N(CC(=O)Nc2ccc3c(c2)OCO3)Cc2ccccc2F)cc1	-13.1%
Cc1sc(NC(=O)Cc2cccc3ccccc23)c(C(N)=O)c1C	14.5%
O=S(=O)(c1ccsc1)c1ccsc1	3.31%
C=CCn1c(=N)n(CC(=O)c2cccs2)c2ccccc21	-7.12%
N=C(NOC(=O)Cc1cccs1)c1ccc(Cl)cc1	3.27%
CCCCN1C(=O)C(O)=C(C(C)=O)C1c1ccc(F)cc1 (centres unmarked)	-6.83%
CCc1nc2cc(Cc3ccc4[nH]c(CC)nc4c3)ccc2[nH]1	0.628%
O=C1c2ccccc2C(=O)N1c1ncc(Cc2cc(Cl)ccc2Cl)s1	7.93%
COc1cc(-c2cc(NC(=O)COCc3cc(-c4ccco4)on3)on2)cc(OC)c1OC	1.34%
CC(=O)N(CCN(C)C)c1nc2cc(C)cc(C)c2s1	1.46%
Cc1ccccc1-c1nc(CSc2nc(O)c3c(n2)CCC3)c(C)o1	-1.21%
CCOC(=O)N1CCc2c(sc3c2c(=O)n(Cc2ccccc2)c(=O)n3Cc2ccccc2F)C1	0.44%
COc1ccc(N2C(=O)CC(N3CCC(C(N)=O)CC3)C2=O)cc1 (centres unmarked)	-5.07%
O=C1C2CCCC1C(c1ccccc1)NC2c1ccccc1 (centres unmarked)	10.4%
Cc1cccc(CN2CCC(CNC(=O)C3c4ccccc4C(=O)N4CCc5ccccc5C34)CC2)c1 (centres unmarked)	-0.631%
COc1cccc2cc(C(=O)/C=C/c3cccc(F)c3)c(=O)oc12	3.1%
Cc1ccc(-c2nnc(C)o2)cc1	-1.68%
Cc1cc(O)nc(SCC(=O)C23CC4CC(CC(C4)C2)C3)c1C#N	1.76%
COc1cc2c(cc1NC(=O)CCn1cc(Br)cn1)oc1ccccc12	-1.21%

Structure (SMILES)	% Inhibition @ 10 uM
CCN1C(=O)N/C(=C/c2cc(Br)ccc2OCc2ccc(C(=O)O)cc2)C1=O	-4.54%
O=C(CCCN1C(=O)c2ccccc2C1=O)Nc1cccc(Cl)c1Cl	-1.16%
CCCNC(=O)CSCc1cnn(-c2ccccc2)c1-n1cccc1	-1.08%
N#CCc1ccc(NC(=O)COc2cccc(Br)c2)cc1	0.231%
Cc1ccc(/N=C2/SC(CC(=O)O)C(=O)N2C2CCCCC2)cc1 (centres unmarked)	-4.39%
Cc1nc(SCC(=O)N2CCCCCC2)c2c3c(sc2n1)CCC3	0.13%
CCOc1ccc(NC(=O)CC(C)C)cc1	-0.872%
COc1ccc(-c2cn(-c3ccc(C)cc3)c(=O)n2-c2ccccc2)cc1	-5.98%
COc1cccc(OC)c1C(=O)Nc1ccccc1C(F)(F)F	-5.65%
O=C(O)CCCCCNC(=O)c1ccc(Br)cc1	-1.97%
O=C(Nc1nc2ccccc2s1)C1CCN(c2ncnc3c2nc2n3CCCCC2)CC1	5.92%
CSCCC1C(C#N)=C(N)Oc2[nH]nc(-c3cccs3)c21 (centres unmarked)	-2.16%
COc1ccc(Cl)cc1N(CC(=O)Nc1ccccc1Cl)S(C)(=O)=O	-5.13%
C#CCOc1ccc(C2C(C#N)=C(N)OC3=C2C(=O)CCC3)cc1OC (centres unmarked)	-6.51%
CSc1nc(C)cc(OCCNC(=O)COc2ccc(Cl)cc2C)n1	0.884%
Cc1ccc(C(C)C)c(OCC(O)CN2CCOCC2)c1 (centres unmarked)	-5.51%
CCOc1ccc(C2CC(=O)NC(SCC(=O)Nc3ccc(Br)cc3)=C2C#N)cc1 (centres unmarked)	-6.38%
CCN(CC)c1ccc(C2C(C#N)=C(N)OC3=C2C(=O)CCC3)cc1 (centres unmarked)	3.65%
Cc1nc2ccccc2n1CCOc1ccc(Cl)cc1	2.79%
Cc1nc2ccccc2cc1C(=O)NCc1ccccc1	4.31%
O=C1CC(c2ccc(Cl)cc2)NC(NC(=O)c2ccc(OC(F)F)cc2)=N1 (centres unmarked)	-5.05%
CCN(CC)CCN(C)Cc1ccc(SC)cc1	3.18%
COc1ccc(OCC(=O)Nc2ccc(S(=O)(=O)NC(C)=O)cc2)cc1	-13.4%
